Reference: the BET-seq Pho4 binding data (Le et al. 2018)
Some of the results follow. The energies were worked out here from pooled read counts, against the library average; single values are noisy.

Each sequence was assayed against T1, Pho4 (S. cerevisiae) (UniProt P07270) (assay: relative binding free energy (BET-seq); higher = weaker binding). Conditions: reference: library average.
T1 sequence: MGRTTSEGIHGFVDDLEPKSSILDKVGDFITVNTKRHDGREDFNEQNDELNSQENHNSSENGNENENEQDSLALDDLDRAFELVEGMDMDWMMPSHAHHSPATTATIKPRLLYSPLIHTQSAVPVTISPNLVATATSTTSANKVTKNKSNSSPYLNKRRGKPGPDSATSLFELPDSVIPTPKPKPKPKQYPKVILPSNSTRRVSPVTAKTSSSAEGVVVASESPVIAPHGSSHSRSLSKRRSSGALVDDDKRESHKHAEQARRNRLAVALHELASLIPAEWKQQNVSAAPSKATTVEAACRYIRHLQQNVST

| Sequence | relative binding free energy |
| --- | --- |
| TTAGCCACGTGTCGTG | -0.11 kcal/mol |
| TGGGACACGTGGGAAC | 0.05 kcal/mol |
| ATTTTCACGTGAAGAT | 0.36 kcal/mol |
| TGACACACGTGTGGTT | 0 kcal/mol |
| GTCCGCACGTGATGGT | 0.21 kcal/mol |
| TGTATCACGTGATAGT | 0.3 kcal/mol |
| CGATGCACGTGGGTGT | -0.27 kcal/mol |
| GAGGGCACGTGAATAT | 0.34 kcal/mol |
| GTCGGCACGTGCTTGT | -0.07 kcal/mol |
| GGAGTCACGTGGAGCG | 0.17 kcal/mol |
| CTGTTCACGTGTTTAT | 0.22 kcal/mol |
| ATTGCCACGTGGTGTG | -0.21 kcal/mol |
| CTGTGCACGTGGGGAG | -0.12 kcal/mol |
| TGGGCCACGTGTGTTG | -0.07 kcal/mol |
| TGGGTCACGTGACGAA | 0.09 kcal/mol |
| GATTTCACGTGAAGGG | 0.45 kcal/mol |
| ACAGGCACGTGTTAGT | -0.13 kcal/mol |
| TTCGTCACGTGGGGGA | -0.05 kcal/mol |
| CGGTTCACGTGGTTCA | 0.19 kcal/mol |
| TTATGCACGTGTTCTG | -0.11 kcal/mol |
| TTGTACACGTGAAGGC | 0.33 kcal/mol |
| TTGTACACGTGATTTC | 0.17 kcal/mol |
| TAGGACACGTGCCGGG | -0.06 kcal/mol |

| Sequence | relative binding free energy |
| --- | --- |
| AACGTCACGTGATGTT | 0.16 kcal/mol |
| TCAGACACGTGATGAG | 0.3 kcal/mol |
| GTTCTCACGTGAAGGT | 0.42 kcal/mol |
| AGGAACACGTGGGGGT | -0.05 kcal/mol |
| TGGAACACGTGAGTGG | 0.11 kcal/mol |
| TTAGCCACGTGGTGGG | -0.15 kcal/mol |
| GGCTGCACGTGGGTGC | -0.12 kcal/mol |
| TACATCACGTGTTTAT | 0.1 kcal/mol |
| ATTGGCACGTGCAGGT | -0.11 kcal/mol |
| AGTTGCACGTGATGGA | 0.14 kcal/mol |
| TAGGACACGTGAAGAG | 0.4 kcal/mol |
| GATTGCACGTGTTCAG | 0.12 kcal/mol |
| TGGGACACGTGGAACG | 0.02 kcal/mol |
| GTGCACACGTGGTGGC | -0.09 kcal/mol |
| GATGACACGTGTGGGA | 0.19 kcal/mol |
| GTCTACACGTGATTTT | 0.26 kcal/mol |
| CCGTGCACGTGTAGGG | -0.16 kcal/mol |
| ATTTTCACGTGCTATT | 0.11 kcal/mol |
| GGGTTCACGTGCAATA | 0.53 kcal/mol |
| AAGATCACGTGTGGTA | 0.14 kcal/mol |
| ATATACACGTGGAATT | 0.2 kcal/mol |
| TAGGGCACGTGGCTAG | -0.16 kcal/mol |
| GTGGGCACGTGATCAG | -0.05 kcal/mol |

| Sequence | relative binding free energy |
| --- | --- |
| GGGCCCACGTGTATGG | -0.03 kcal/mol |
| GGGAGCACGTGGGGGG | -0.19 kcal/mol |
| GATTTCACGTGACGTT | 0.45 kcal/mol |
| TGTTCCACGTGGCTGT | 0 kcal/mol |
| TGTTTCACGTGTCAAA | 0.15 kcal/mol |
| TTCAGCACGTGTGGGA | -0.19 kcal/mol |
| TTAAACACGTGTACTG | 0.12 kcal/mol |
| GGTTGCACGTGACTGT | 0.04 kcal/mol |
| ATAGGCACGTGATAAT | -0.04 kcal/mol |
| TTGGACACGTGCATGG | -0.11 kcal/mol |
| TTGAGCACGTGTCGTT | 0.08 kcal/mol |
| AATGTCACGTGCGGTG | 0.03 kcal/mol |
| GGTGTCACGTGTTACT | 0.16 kcal/mol |
| AAGGGCACGTGCGCGT | -0.39 kcal/mol |
| GGTTTCACGTGTCAAT | 0.42 kcal/mol |
| GGGATCACGTGCGTGG | 0.15 kcal/mol |
| GTTGACACGTGATTAG | 0.04 kcal/mol |
| GGATGCACGTGTTCGT | 0.08 kcal/mol |
| GTTTTCACGTGTTACG | 0.28 kcal/mol |
| GATATCACGTGGGAGC | 0.2 kcal/mol |
| ATGGACACGTGTGCTG | -0.08 kcal/mol |
| AGGCGCACGTGTAGGC | -0.09 kcal/mol |
| TTTTGCACGTGCGTTG | -0.13 kcal/mol |

| Sequence | relative binding free energy |
| --- | --- |
| AATGCCACGTGGTTGG | -0.16 kcal/mol |
| GAATGCACGTGTTGTG | 0.12 kcal/mol |
| GGCGACACGTGGGTTA | -0.05 kcal/mol |
| TAGAGCACGTGTGGAA | -0.14 kcal/mol |
| ATTGTCACGTGGTGCA | 0.01 kcal/mol |
| GTGAACACGTGGATAG | 0.01 kcal/mol |
| CAGTTCACGTGTGTGT | 0.23 kcal/mol |
| TATATCACGTGGAGGT | 0.14 kcal/mol |
| AGGTCCACGTGCTGTG | -0.01 kcal/mol |
| CGTGTCACGTGGCAGT | 0.05 kcal/mol |
| TATGGCACGTGAGAAT | 0.06 kcal/mol |
| CTTTGCACGTGGGTAG | -0.2 kcal/mol |
| GGTGGCACGTGGCGTG | -0.16 kcal/mol |
| TTAGGCACGTGAGTGG | 0.09 kcal/mol |
| TTCACCACGTGGTGGG | -0.06 kcal/mol |
| TCGTACACGTGGTGGA | -0.05 kcal/mol |
| CAGCACACGTGTGGGT | 0.22 kcal/mol |
| GTTCACACGTGGGATG | 0.15 kcal/mol |
| GAAGACACGTGAGGGG | 0.36 kcal/mol |
| ATGGTCACGTGTGGAG | 0.2 kcal/mol |
| AAGTTCACGTGAGTGG | 0.45 kcal/mol |
| ATATACACGTGGGAGA | 0.02 kcal/mol |
| TGTCGCACGTGTTAGA | 0 kcal/mol |

| Sequence | relative binding free energy |
| --- | --- |
| TCGGACACGTGTTATT | 0.08 kcal/mol |
| TGTCTCACGTGTGGGC | 0.15 kcal/mol |
| ACAGACACGTGTGTTG | 0 kcal/mol |
| TTAGACACGTGATCGG | 0.07 kcal/mol |
| TGCTGCACGTGAGTAG | 0.29 kcal/mol |
| GTGTTCACGTGTTTCG | 0.31 kcal/mol |
| CGTAACACGTGTTGGT | 0.01 kcal/mol |
| GAAGGCACGTGATTCG | 0.17 kcal/mol |
| TCTTCCACGTGGGGGG | -0.16 kcal/mol |
| TCTTGCACGTGGTTTT | 0.01 kcal/mol |
| TGTCGCACGTGGGTAT | -0.19 kcal/mol |
| TGAATCACGTGGGGTC | 0.03 kcal/mol |
| CTGGTCACGTGGAACG | 0.39 kcal/mol |
| GGGGTCACGTGCGCGA | 0 kcal/mol |
| GTTTGCACGTGTCTAT | -0.07 kcal/mol |
| CACTTCACGTGGGTTG | 0.06 kcal/mol |
| TGTCGCACGTGGTGGA | -0.17 kcal/mol |
| TACGGCACGTGTAATG | 0.11 kcal/mol |
| ATGATCACGTGTGGTA | 0.05 kcal/mol |
| ATACTCACGTGATTGT | 0.27 kcal/mol |
| TGGGCCACGTGCGCGT | -0.26 kcal/mol |
| GTGAGCACGTGAGGCA | 0.16 kcal/mol |
| AACGTCACGTGGGCGG | -0.18 kcal/mol |
